Source: PubChem BioAssay (NCI)
Values joined by “and” are separate entries in the source; they are usually repeats but may differ in a detail not shown here. Identical values can stand only once.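 Assay format: 96-well plates, 48-hour exposure. At the GI50, growth is halved. TGI denotes the concentration required for complete inhibition of growth.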 Square brackets hold non-standard residues; d marks the D form. Peptide text beside a SMILES is read from it. * marks the point of attachment. ξ: configuration not given here. NMeF = CN[C@@H](Cc1ccccc1)C(=O)O; NMeV = CN[C@H](C(=O)O)C(C)C; ξNMeN = CNC(CC(N)=O)C(=O)O; NMeA = CN[C@@H](C)C(=O)O; ξNMeV = CNC(C(=O)O)C(C)C; Boc = CC(C)(C)OC(=O)*

system: NCI-H322M lung; assay: inhibition of tumour cell growth, NCI panel, 48 h

Compound	GI50 [µM]	TGI
Cc1ccc(CN(C)c2ccc(CO)c(Cl)c2)cc1	9.49	59.7 µM
O=[N+]([O-])c1ccc(C2CC(c3ccc(NCc4nc5ccccc5[nH]4)cc3)=NO2)cc1 (configuration not stated)	–	> 100 µM
Cc1nc2c(=O)[nH]ncc2[nH]1	–	> 100 µM
C=C1c2nc3ccccc3n2C=C(c2ccc(C)cc2)N1c1ccccc1	–	> 100 µM
Cc1ccc(C2CC(c3cccc([N+](=O)[O-])c3)=Nc3ccccc3S2)cc1 (configuration not stated)	–	> 100 µM
C[N+](C)(CCNc1ccc(NCC[N+](C)(C)Cc2ccc([N+](=O)[O-])cc2)c2c1C(=O)c1ccccc1C2=O)Cc1ccc([N+](=O)[O-])cc1	–	> 100 µM
COC(=O)C1=C(C=O)C2C=CC1C2 (configuration not stated)	–	> 100 µM
O=C1OCCC1(Cc1ccc(Cl)cc1)Cc1ccc(Cl)cc1	–	> 100 µM
CSc1nc(NC2OC(COC(C)=O)C(OC(C)=O)C(OC(C)=O)C2OC(C)=O)c(N=CC=Nc2c(NC3OC(COC(C)=O)C(OC(C)=O)C(OC(C)=O)C3OC(C)=O)nc(SC)[nH]c2=O)c(=O)[nH]1 (configuration not stated)	–	> 100 µM
CCCCNC(=O)c1cc(S(=O)(=O)n2cc[nH]c2=O)c(SC)cc1Cl	–	> 100 µM
O=c1c(=O)c2cscc2c1=O	–	> 25 µM
CCOC(=O)[C@@H]1[C@@H]2NC(=O)N[C@@]1(C)Oc1ccccc12	–	> 100 µM
C=C(C)c1cc(C(C)(C)C)cc(C(=C)C)c1S(C)(=O)=O	–	> 100 µM
CCC1=C(C(C)=O)[C@@H]2CCCCC(C(=O)OC)[C@@H]2C1=O (some centres not stated)	–	> 100 µM
O=C1Nc2c(Cl)cc(Cl)cc2C1=O	–	> 100 µM
CCOC(=O)N1CCN(P(=O)(Nc2ccc3nc(NC(=O)OC)[nH]c3c2)Oc2ccccc2)CC1 (configuration not stated)	–	> 100 µM
COc1cc([C@@H]2c3cc4c(cc3[C@@H](OC3OC5CO[C@@H](c6cccs6)OC5C(O)C3O)[C@H]3COC(=O)[C@H]23)OCO4)cc(OC)c1O (some centres not stated)	–	16.3 µM
CC1CC2(OC2C)C(=O)OC2CCN(C)C/C=C(/COC(=O)C1(C)O)C2=O (configuration not stated)	–	> 100 µM
COC(=O)[C@@]12CN(C)[C@@H](C(C)(C)C)N1C(=O)OC2c1ccccc1 (some centres not stated)	–	> 100 µM
O=C(Cc1ccc(F)cc1)NC1=C(Cl)C(=O)c2ccccc2C1=O	–	> 75.7 µM
O=c1ccccc(-c2ccc(Br)cc2)c1O	0.615	> 100 µM
COC(=O)[C@H](C)N(C)C(=O)C(CC(N)=O)N(C)C(=O)[C@H](Cc1ccccc1)N(C)C(=O)[C@@H]1CCCN1C(=O)[C@H](C(C)C)N(C)C(=O)C(C(C)C)N(C)C(=O)[C@@H](NC(=O)OC(C)(C)C)C(C)C (some centres not stated) (Boc-V[ξNMeV][NMeV]P[NMeF][ξNMeN][NMeA]-OMe)	–	> 75 µM
C=C=C(Sc1ccccc1)C(C)(C)O	–	> 100 µM
O=C(NC(Cc1ccc(I)cc1)C(=O)O)c1cccc(Br)c1 (configuration not stated)	–	> 100 µM
Cn1c(-c2ccccc2)cc(-c2cccs2)c1-c1ccsc1	–	> 100 µM

Compound	GI50 [µM]	TGI
COc1cc(O)c2c(c1)OCC1(Cc3cc(OC)c(OC)cc31)C2=O (configuration not stated)	–	> 100 µM
c1ccc2c(c1)Oc1cccc3cccc-2c13	–	> 100 µM
COc1ccc(OC)c(C#N)c1C#N (tested in a mixture with another compound)	–	> 100 µM
CC(=O)Oc1cc(C(C)C)c(OCCN(C)C)cc1C	> 100	> 100 µM
CCNc1cnc2c(n1)c(=O)n(C)c(=O)n2C	–	> 100 µM
COc1ccc(-c2nc(Sc3c([N+](=O)[O-])ncn3C)n[nH]2)cc1	–	53.5 µM
COc1ccc(C(NS(=O)(=O)c2ccc(C)cc2)c2c(C(CBr)OC)c3ccccc3n2S(=O)(=O)c2ccccc2)cc1OC (configuration not stated)	–	> 100 µM
c1ccc(-c2nnc(CCCCCCCCc3nnc(-c4ccccc4)o3)o2)cc1	–	> 100 µM
CC(=O)OCC(OC(C)=O)C(OC(C)=O)C(OC(C)=O)C(=O)CNn1c(-c2ccc(C)cc2)nc2ccccc2c1=O (configuration not stated)	–	> 100 µM
O=C1C=CC2(O)OC/C(=C\c3ccccc3)C(O)=C2C1=O (configuration not stated)	2.89	12.5 µM
Cc1c2c(n(C)c1C)C(=O)C1C(C2=O)C2(C)c3ccccc3C1(C)c1ccccc12 (configuration not stated)	–	> 100 µM
Cc1cc(=O)n2nnc3c4ccccc4ccc3n12	13.5	28.3 µM
CCOC(CNc1nn2c(C)nnc2s1)OCC	–	> 100 µM
ONCCCn1cnc2c(NC3CC3)ncnc21	–	> 100 µM
Cc1cccc2c(NCCCN(C)C)c3c([N+](=O)[O-])ccc(C)c3nc12	–	1.23 µM
Cn1ccc2c1SSSSS2	51.3	> 100 µM
CC(=O)N/C=C/c1cc(O)ccc1O	–	> 100 µM
CC1=C(C(=O)CC(=O)C(=O)Nc2ccc(Cl)cc2C)Sc2ccccc2N1	–	> 100 µM
O=S(O)CCCCCSSSCCCCCS(=O)O	–	> 100 µM
CCCCOC(=O)CC(CC(=O)OCCCC)(OC(C)=O)C(=O)OCCCC	–	> 200 µM
C[C@]12CCC(N3CCCC3)CC1=CC[C@@H]1[C@@H]2CC[C@]2(C)C(O)[C@H](n3ccnc3)C[C@@H]12 (some centres not stated)	–	> 100 µM
COc1cc(C(=O)N(C)N(C)C)cc(OC)c1OC	–	> 10 µM
O=[N+]([O-])/C(C(Cl)=C(Cl)Cl)=C(/Br)SCc1ccccc1	–	31.5 µM
CCc1n[nH]c(=O)n1O	–	> 100 µM
Cc1csc2nc(-c3ccncc3)cn12	–	> 100 µM

Compound	GI50 [µM]	TGI
Cc1ccc(C2=Nc3c(N)nc(N)nc3NC(c3cccc(Nc4ccnc5cc(C(F)(F)F)ccc45)c3)C2)cc1 (configuration not stated)	2.53	8.99 µM
C[CH2][Sn]([CH2]C)([O]C(=O)c1c(F)cccc1F)[O][Sn]([CH2]C)([CH2]C)[O]C(=O)c1c(F)cccc1F	19.8	45.1 µM
O=C(CN1CCN(c2cccc(Cl)c2)CC1)N1CCc2c([nH]c3ccccc23)C1c1cccnc1 (configuration not stated)	–	> 100 µM
O=S(=O)(O)c1cc(S(=O)(=O)O)c2c(Nc3ccnc4ccccc34)ccc(S(=O)(=O)O)c2c1	–	> 100 µM
Nc1c(C(=O)Nc2cccc(C(F)(F)F)c2)sc2nc3c(cc12)C(O)CCC3 (configuration not stated)	24.2	> 100 µM
Cc1ccc(S(=O)(=O)C(CC(NC=O)S(=O)(=O)c2ccc(C)cc2)NC=O)cc1 (configuration not stated)	–	> 100 µM
CC(=O)OC12c3ccccc3C1CCCC21OCCCO1 (configuration not stated)	–	> 100 µM
C#CC[C@@H]1C[C@]2(C)[C@H]3CC[C@@H]4[C@H]5C(C(=C)C)CC[C@]5(C(=O)NCCCCN)CC[C@@]4(C)[C@]3(C)CC[C@H]2C(C)(C)[C@H]1OC(C)=O (some centres not stated)	1.65	3.03 µM
O=S1OC[C@H](CCCl)O1 (some centres not stated)	–	> 100 µM
Cc1nc2cc(-c3nn(C(C)C)c4ncnc(N)c34)ccc2o1	0.0134	1.63 µM
CCC(C)NC(=S)N/N=C(\C)c1nc2ncccc2[nH]1 (configuration not stated)	–	> 100 µM
CC(CCOc1ccc2ccc(=O)oc2c1)C1=CC(=O)C(C)(C)O1 (configuration not stated)	–	12.1 µM
O=C1C(Cl)C2(CC(/C=C/c3cccs3)=NN2c2cccc(S(=O)(=O)O)c2)N1c1nc2ccccc2s1 (configuration not stated)	–	> 100 µM
CCOC(OC1=C(C#N)CCC1)C(C)[Se]c1ccccc1 (configuration not stated)	–	> 100 µM
CC1OC(Oc2c(-c3cc(O)c(O)c(O)c3)oc3cc(O)cc(O)c3c2=O)C(O)C(O)C1O (configuration not stated)	–	> 100 µM
O=C1C(C=NC(=S)c2ccccc2)=C(O)c2ccccc21	–	> 100 µM
c1ccc(CC(Cc2ccccc2)C2=NCCCN2)cc1	> 100	> 100 µM
Cc1cccc(C)c1NC(=O)C(=O)C(C#N)c1ccccc1 (configuration not stated)	–	> 100 µM
COc1cc(-c2nn(-c3cccc(NC(=O)Nc4cccc(C(F)(F)F)c4)c3)cc2-c2ccncc2)ccc1Cl	1.36	6.92 µM
CC(C)N(CCCNC(=O)Nc1ccc(C(C)(C)C)cc1)C[C@H]1O[C@@H](n2ccc3c(N)ncnc32)[C@H](O)[C@@H]1O	> 100	> 100 µM
O=NN1CCNC1Cc1ccccc1 (configuration not stated)	–	> 100 µM
CCOc1ccc(NC(=O)/C(=C\c2ccc(C)cc2)C(C)=O)cc1	–	> 100 µM
Cc1cc2cn3c4ccc(O)cc4nc(N)c3c2cc1C	0.783	4.9 µM
Nn1c(SCC(=O)O)nc2ccccc2c1=O	–	> 100 µM
COc1cc(S(=O)(=O)Nc2nc(-c3ccc(N4C(=O)/C(=C\c5cccs5)N=C4c4ccccc4)cc3)cs2)ccc1Cl	–	> 100 µM

Compound	GI50 [µM]	TGI
CCn1c2ccccc2c2cc(N=Nc3ccc(C#N)cc3)ccc21	–	> 100 µM
CCCCCCCCCCCC(=O)NCc1ccc(OC(=O)CCCCCCCCCCC)c(OC)c1	–	> 100 µM
CCC12C=CCN3CCC4(c5cc(C6(C(=O)OC)CCCCCc7c6[nH]c6ccccc76)c(OC)cc5N(C)C4C(O)(C(=O)OC)C1OC(C)=O)C32 (configuration not stated)	–	15.9 µM
COc1cc(C2CC(c3cccc(Nc4ccncc4)c3)=NN2c2ccccc2)cc(OC)c1OC (configuration not stated)	2.04	5.4 µM
COc1cc(/C=C2\C(=O)Nc3ccccc32)cc(OC)c1O	8.3	40.9 µM
COc1cc2c(cc1OCCCN1CCN(C)CC1)N=C[C@@H]1CCCN1C2=O	–	37.4 µM
CCCN1C/C(=C\c2ccc(O)c(OC)c2)C(=O)/C(=C/c2ccc(O)c(OC)c2)C1	> 100	> 100 µM
Clc1ccc(Cn2c(CN3CCCC3)nc3ccccc32)cc1	39.7	> 100 µM
Cc1ccc(O)c(C2=CC3=NNC(=O)C3C(c3cccc(Br)c3)C2)c1 (configuration not stated)	–	41 µM
S=C(S)N1CCCCC1	57.8	> 406 µM
Cn1cnc([N+](=O)[O-])c1Sc1nc2ccccc2s1	–	29.7 µM
CC(=O)N1CCC(Nc2ncc3cc(Oc4ccc(F)cc4F)c(=O)n(C)c3n2)CC1	> 25	> 25 µM
CCc1ccc(C(=O)/C=C/C23c4ccccc4C(c4ccccc42)C2C(=O)NC(=O)C23)cc1 (configuration not stated)	1.67	3.58 µM
CN(CCCNC(=O)c1nn(-c2ccccc2)c2c1ccc1ccccc12)CCCNC(=O)c1nn(-c2ccccc2)c2c1ccc1ccccc12	–	3.39 µM
C=CCc1cccc2cc(C(=O)NC3CCCCC3)c(=N)oc12	–	40.8 µM
CC(=O)NC1C(OCc2ccccc2)OC(CO)C(O)C1OC(C)C(=O)NC(C)C(=O)N[C@@H](CCC(=O)OCCCNC1c2ccccc2Nc2cccc([N+](=O)[O-])c21)C(N)=O (some centres not stated)	0.0403	0.28 µM and 0.0302 µM
CN1CCCC2[C@@H]3CCC4=C(O)C(=O)CC[C@]4(C)C3CC[C@@]21C (some centres not stated)	–	> 100 µM
CN(C)CC1CC/C(=C\c2ccc(Cl)cc2)C1=O (configuration not stated)	–	33.7 µM
Cc1cc(Cl)ccc1OCc1nn2c(CCCCc3nnc4sc(COc5ccc(Cl)cc5C)nn34)nnc2s1	46.4	> 100 µM
CSC1N=CNc2c1sc(=S)n2-c1ccccc1 (configuration not stated)	–	> 100 µM
CCC1OC(=O)CC(O)C(C)C(OC2OC(C)C(O)C(N(C)C)C2O)C(CC=O)CC(C)C(=O)/C=C/C2(C)OC2C1C (configuration not stated)	–	66.8 µM
O=C1OCC2=C1C(c1ccc3c(c1)OCO3)c1cc3c(cc1O2)OCO3 (configuration not stated)	–	> 100 µM
CCN(CC)CCN1C(=O)CC2[C@@H]3CCc4cc(OC)ccc4C3CC[C@]2(C)C1=O (some centres not stated)	–	> 100 µM
